Targets include SHP2 C-SH2 domain E139D; SHP2 N-SH2 domain L43F; SHP2 N-SH2 domain T42A; SHP2 N-SH2 domain T52S.
Assay in all cases: enrichment score (SH2-bound / input frequency) (ratio); bacterial display of known human phosphotyrosine sites (pTyr-Var adds point mutants) read by sequencing; higher = stronger binding; tyrosines were phosphorylated by kinases first
Holding throughout (conditions): peptide library: pTyr-Var

Assay [1] concerns the target SHP2 C-SH2 domain wild-type.
Assay [2] addresses SHP2 N-SH2 domain wild-type.

The list shows a part of the results. Rule as the data show it: active = 3.2 or more and inactive = the rest. Most of these values are background signal.
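Also: displayed peptides selected on beads carrying the immobilized SH2 domain, with library peptides lacking any tyrosine serving as negative controls.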

RRNEIYEIKVD [LGR5_Y387_H383R]: the enrichment score is inactive: 0.685 with SHP2 C-SH2 domain E139D; inactive: 0.637 in assay [1]; inactive: 0.767 with SHP2 N-SH2 domain L43F; inactive: 0.619 with SHP2 N-SH2 domain T42A; inactive: 0.858 with SHP2 N-SH2 domain T52S; inactive: 0.793 in assay [2].

For SSYSGYIMMPN [LEF1_Y114], the enrichment score in the assay with SHP2 C-SH2 domain E139D was inactive: 0.76; in assay [1] it was inactive: 0.751; with SHP2 N-SH2 domain L43F, inactive: 0.698; with SHP2 N-SH2 domain T42A it was inactive: 0.932; with SHP2 N-SH2 domain T52S, inactive: 0.736; in assay [2], inactive: 0.736.

With PSALGYSPSLH [LLGL2_Y40_R45H], the enrichment score with SHP2 C-SH2 domain E139D was inactive: 0.886; in assay [1], inactive: 0.806; with SHP2 N-SH2 domain L43F, inactive: 0.884; with SHP2 N-SH2 domain T42A, inactive: 0.517; with SHP2 N-SH2 domain T52S it was inactive: 0.956; in assay [2] it was inactive: 1.02.

Consider CENCHYPIVPL [LCK_Y25], for which the enrichment score with SHP2 C-SH2 domain E139D is inactive: 0.892; in assay [1], inactive: 0.818; with SHP2 N-SH2 domain L43F it was inactive: 0.83; in the assay with SHP2 N-SH2 domain T42A, inactive: 0.685; with SHP2 N-SH2 domain T52S, inactive: 0.807; in assay [2], inactive: 0.901.

For VNKIYHPDFIV [LIG3_Y768_Y768H], the enrichment score in the assay with SHP2 C-SH2 domain E139D is inactive: 1.12; in assay [1], inactive: 0.673; with SHP2 N-SH2 domain L43F it was inactive: 0.764; with SHP2 N-SH2 domain T42A, inactive: 1.1; in the assay with SHP2 N-SH2 domain T52S, inactive: 1.01; in assay [2], inactive: 0.713.

On to SRGLAYPARPA [LEMD2_Y122], for which the enrichment score is inactive: 0.793 with SHP2 C-SH2 domain E139D; inactive: 0.649 in assay [1]; inactive: 0.576 in the assay with SHP2 N-SH2 domain L43F; inactive: 0.554 in the assay with SHP2 N-SH2 domain T42A; inactive: 0.7 with SHP2 N-SH2 domain T52S; inactive: 0.693 in assay [2].

With DPLLTYRFPPK [LMNA_Y481], the enrichment score was inactive: 1.14 in the assay with SHP2 C-SH2 domain E139D; inactive: 0.857 in assay [1]; inactive: 1.03 with SHP2 N-SH2 domain L43F; inactive: 0.797 with SHP2 N-SH2 domain T42A; inactive: 0.965 with SHP2 N-SH2 domain T52S; inactive: 0.693 in assay [2].

Take FGCGMYSHLQG [LGR4_Y848_D844G_YF]: the enrichment score in the assay with SHP2 C-SH2 domain E139D was inactive: 1.33; in assay [1] it was inactive: 1.72; with SHP2 N-SH2 domain L43F, inactive: 1.1; with SHP2 N-SH2 domain T42A it was inactive: 1.07; with SHP2 N-SH2 domain T52S, inactive: 1.36; in assay [2], inactive: 1.99.

On to QDGFSYLSRQM [LDLR_Y847_P848L_YF], for which the enrichment score was inactive: 0.646 in the assay with SHP2 C-SH2 domain E139D; inactive: 0.642 in assay [1]; inactive: 0.682 with SHP2 N-SH2 domain L43F; inactive: 0.736 with SHP2 N-SH2 domain T42A; inactive: 0.702 with SHP2 N-SH2 domain T52S; inactive: 0.695 in assay [2].

As to FQKNVYSEELR [LMNA_Y211_I210V], the enrichment score with SHP2 C-SH2 domain E139D was inactive: 0.597; in assay [1], inactive: 0.562; with SHP2 N-SH2 domain L43F, inactive: 0.719; in the assay with SHP2 N-SH2 domain T42A, inactive: 0.669; with SHP2 N-SH2 domain T52S, inactive: 0.561; in assay [2], inactive: 0.747.

For SAPPSHEETVA [LITAF_Y23_Y23H], the enrichment score with SHP2 C-SH2 domain E139D is inactive: 0.367; in assay [1] it was inactive: 0.581; with SHP2 N-SH2 domain L43F, inactive: 0.394; with SHP2 N-SH2 domain T42A, inactive: 0.459; in the assay with SHP2 N-SH2 domain T52S, inactive: 0.461; in assay [2] it was inactive: 0.653.

Turning to DPLLTYLFPPK [LMNA_Y481_R482L], the enrichment score is inactive: 1.51 with SHP2 C-SH2 domain E139D; inactive: 1.43 in assay [1]; inactive: 1.31 in the assay with SHP2 N-SH2 domain L43F; inactive: 1.35 with SHP2 N-SH2 domain T42A; inactive: 1.1 with SHP2 N-SH2 domain T52S; inactive: 1.24 in assay [2].

On to PQDVTYARLHS [LILRB4_Y412_Q414R], for which the enrichment score was inactive: 0.881 in the assay with SHP2 C-SH2 domain E139D; inactive: 2.62 in assay [1]; inactive: 1.21 with SHP2 N-SH2 domain L43F; active: 4.36 in the assay with SHP2 N-SH2 domain T42A; inactive: 0.878 with SHP2 N-SH2 domain T52S; inactive: 0.921 in assay [2].

Turning to SARFRYLMAEK [LDHB_Y173], the enrichment score with SHP2 C-SH2 domain E139D is inactive: 0.968; in assay [1], inactive: 0.455; in the assay with SHP2 N-SH2 domain L43F, inactive: 0.645; with SHP2 N-SH2 domain T42A, inactive: 0.621; with SHP2 N-SH2 domain T52S it was inactive: 0.451; in assay [2], inactive: 0.767.

With RHNEIYEIKVD [LGR5_Y387], the enrichment score was inactive: 0.853 in the assay with SHP2 C-SH2 domain E139D; inactive: 0.861 in assay [1]; inactive: 0.951 with SHP2 N-SH2 domain L43F; inactive: 0.892 with SHP2 N-SH2 domain T42A; inactive: 0.953 with SHP2 N-SH2 domain T52S; inactive: 0.741 in assay [2].

As for HGVSSYDTIIS [LDLR_Y465_V468I], the enrichment score with SHP2 C-SH2 domain E139D is inactive: 0.618; in assay [1], inactive: 0.652; in the assay with SHP2 N-SH2 domain L43F, inactive: 0.678; with SHP2 N-SH2 domain T42A it was inactive: 0.611; with SHP2 N-SH2 domain T52S it was inactive: 0.569; in assay [2] it was inactive: 0.548.

Turning to QDGYSYPSRQM [LDLR_Y847], the enrichment score in the assay with SHP2 C-SH2 domain E139D is inactive: 0.584; in assay [1], inactive: 0.629; in the assay with SHP2 N-SH2 domain L43F it was inactive: 0.569; with SHP2 N-SH2 domain T42A, inactive: 0.664; in the assay with SHP2 N-SH2 domain T52S, inactive: 0.592; in assay [2], inactive: 0.568.

Regarding KVNKIYHPDFI [LIG3_Y767_Y768H], the enrichment score with SHP2 C-SH2 domain E139D was inactive: 0.716; in assay [1] it was inactive: 0.838; with SHP2 N-SH2 domain L43F it was inactive: 0.812; with SHP2 N-SH2 domain T42A, inactive: 0.618; with SHP2 N-SH2 domain T52S it was inactive: 0.89; in assay [2] it was inactive: 0.639.

As for DRLTVYIDRVR [LMNA_Y45_A43T], the enrichment score is inactive: 0.582 in the assay with SHP2 C-SH2 domain E139D; inactive: 0.685 in assay [1]; inactive: 0.532 with SHP2 N-SH2 domain L43F; inactive: 0.571 with SHP2 N-SH2 domain T42A; inactive: 0.625 in the assay with SHP2 N-SH2 domain T52S; inactive: 0.771 in assay [2].

The record behind these values is the supplement of paper PMC10369915.
